Data on 17 compounds can be found in US20260016473A1 (priority 2022, published 2026).

Structures are written as SMILES. Where two headings read alike, the source gives them in different places.

In assay [1] the target is T1, Trimeric SARS-CoV-2 Spike Protein, Full-length (Severe acute respiratory syndrome coronavirus 2, UniProt P0DTC2). In kind it is biochemical.
Assay [2] addresses T1, Trimeric SARS-CoV-2 Spike Protein, Full-length. In kind it is biochemical. The source holds these as a separate data set.

With `CCC(C)c1nc2c(CCCNC(=N)N)[nH]c(-c3c[nH]c4ccccc34)cn-2c1=O` (stereo not drawn) [Cypridina Luciferin], the S/N ratio in assay [1] (pH 7.4) was determined as 28.1. For the same compound, in assay [2], the “dependence of luminescence intensity on spike protein concentration” value is “depends on the concentration of the virus spike protein”.

Regarding `Cc1nc2c[nH]c(-c3ccc(N(C)C)cc3)cn-2c1=O` [CLA8, 6-(4-(dimethylamino)phenyl)-2-methylimidazo[1,2-a]pyrazin-3(7H)-one], in assay [1] (n=3), the S/N ratio amounted to 4.04.

Take `Cc1nc2c[nH]c(-c3c[nH]c4ccccc34)cn-2c1=O` [CLA2, 6-(1H-indol-3-yl)-2-methylimidazo[1,2-a]pyrazin-3(7H)-one]: the S/N ratio in assay [1] (n=3) was found to be 5.81.

On to `CCN(CC)c1ccc(-c2cn3c(=O)c(C)nc-3c(CCCNC(=N)N)[nH]2)cc1` [CLA13, 1-(3-(6-(4-(diethylamino)phenyl)-2-methyl-3-oxo-3,7-dihydroimidazo[1,2-a]pyrazin-8-yl)propyl)guanidine], for which the S/N ratio in assay [1] (n=3) was found to be 5.12.

For `CCC(C)c1nc2c(CCCNC(=N)N)[nH]c(-c3ccc(N(CC)CC)cc3)cn-2c1=O` (stereo not drawn) [CLA20, 1-(3-(2-(sec-butyl)-6-(4-(diethylamino)phenyl)-3-oxo-3,7-dihydroimidazo[1,2-a]pyrazin-8-yl)propyl)guanidine], the S/N ratio in assay [1] (n=3) worked out at 10.6.

Regarding `CCN(CC)c1ccc(-c2cn3c(=O)c(Cc4ccc(O)cc4)nc-3c(CCCNC(=N)N)[nH]2)cc1` [CLA14, 1-(3-(6-(4-(diethylamino)phenyl)-2-(4-hydroxybenzyl)-3-oxo-3,7-dihydroimidazo[1,2-a]pyrazin-8-yl)propyl)guanidine], the S/N ratio in assay [1] (n=3) amounted to 8.22.

For `O=c1c(Cc2ccccc2)nc2c(CCc3ccncc3)[nH]c(-c3ccc(N(c4ccccc4)c4ccccc4)cc3)cn1-2` [CLA17, 2-benzyl-6-(4-(diphenylamino)phenyl)-8-(2-(pyridin-4-yl)ethyl)imidazo[1,2-a]pyrazin-3(7H)-one], in assay [1] (n=3), the S/N ratio came to 1.95.

Consider `O=c1c(Cc2ccccc2)nc2c[nH]c(-c3ccc(N4CCCC4)cc3)cn1-2` [CLA10, 2-benzyl-6-(4-(pyrrolidin-1-yl)phenyl)imidazo[1,2-a]pyrazin-3(7H)-one], for which, in assay [1] (n=3), the S/N ratio is recorded as 6.76.

For the compound `O=c1c(Cc2ccccc2)nc2c[nH]c(-c3c[nH]c4ncccc34)cn1-2` [CLA9, 2-benzyl-6-(1H-pyrrolo[2,3-b]pyridin-3-yl)imidazo[1,2-a]pyrazin-3(7H)-one], the S/N ratio in assay [1] (n=3) was 4.05.

As for `CCN(CC)c1ccc(-c2cn3c(=O)c(C)nc-3c[nH]2)cc1` [CLA4, 6-(4-(diethylamino)phenyl)-2-methylimidazo[1,2-a]pyrazin-3(7H)-one], the S/N ratio in assay [1] (n=3) is given as 6.87.

Consider `CCC(C)c1nc2c[nH]c(-c3ccc(N(CC)CC)cc3)cn-2c1=O` (stereo not drawn) [CLA21, 2-(sec-butyl)-6-(4-(diethylamino)phenyl)imidazo[1,2-a]pyrazin-3(7H)-one], for which the S/N ratio in assay [1] (n=3) is 7.06.

On to `CCN(CC)c1ccc(-c2cn3c(=O)c(Cc4ccccc4)nc-3c(CCCNC(=N)N)[nH]2)cc1` [CLA12, 1-(3-(2-benzyl-6-(4-(diethylamino)phenyl)-3-oxo-3,7-dihydroimidazo[1,2-a]pyrazin-8-yl)propyl)guanidine], for which, in assay [1] (n=3), the S/N ratio is listed as 6.33.

`CN(C)c1ccc(-c2cn3c(=O)c(Cc4ccccc4)nc-3c[nH]2)cc1` [CLA7, 2-benzyl-6-(4-(dimethylamino)phenyl)imidazo[1,2-a]pyrazin-3(7H)-one]: the S/N ratio in assay [1] (n=3) was 5.15.

With `N=C(N)NCCCc1[nH]c(-c2c[nH]c3ccccc23)cn2c(=O)c(Cc3ccc(O)cc3)nc1-2` [CLA15, 1-(3-(2-(4-hydroxybenzyl)-6-(1H-indol-3-yl)-3-oxo-3,7-dihydroimidazo[1,2-a]pyrazin-8-yl)propyl)guanidine], the S/N ratio in assay [1] (n=3) worked out at 15.9.

Regarding `CCN(CC)c1ccc(-c2cn3c(=O)c(Cc4ccccc4)nc-3c[nH]2)cc1` [CLA3, 2-benzyl-6-(4-(diethylamino)phenyl)imidazo[1,2-a]pyrazin-3(7H)-one], the S/N ratio in assay [1] (n=3) came to 6.77.

Regarding `CCN(CC)c1ccc(-c2cn3c(=O)c(Cc4ccccc4)nc-3c(CCc3ccncc3)[nH]2)cc1` [CLA18, 2-benzyl-6-(4-(diethylamino)phenyl)-8-(2-(pyridin-4-yl)ethyl)imidazo[1,2-a]pyrazin-3(7H)-one], the S/N ratio in assay [1] (n=3) amounted to 4.46.

Regarding `O=c1c(Cc2ccccc2)nc2c[nH]c(-c3c[nH]c4ccccc34)cn1-2` [CLA1, 2-benzyl-6-(1H-indol-3-yl)imidazo[1,2-a]pyrazin-3(7H)-one], in assay [1] (n=3), the S/N ratio is on record as 6.63.
